Residue numbers refer to the chain shown, from its start. This is one part of the list.
T1: RBFOX1 RRM (Homo sapiens, UniProt Q9NWB1 109-208)
T1 sequence: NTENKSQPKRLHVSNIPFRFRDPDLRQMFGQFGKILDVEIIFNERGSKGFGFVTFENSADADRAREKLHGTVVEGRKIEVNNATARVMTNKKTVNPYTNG

B1: UGUUAGG (DNA:RNA)
RNA: GGGAGACCGGAAUUCAGAUUGUCCUGUUAGGUUAAAUCCCGUCGUAGCCACCA
DNA 1: CAATCTGAATTCCGGTCTCCC
DNA 2: TGGTGGCTACGACGGGATT
B2: AGGCACG (DNA:RNA)
RNA: B1 RNA with U25A, U27G, U28C, G30C
DNA 1: CAATCTGAATTCCGGTCTCCC
DNA 2: TGGTGGCTACGACGGGATT
B3: AAGCCCC (DNA:RNA)
RNA: GGGAGACCGGAAUUCAGAUUGUCCAAGCCCCUUAAAUCCCGUCGUAGCCACCA
DNA 1: CAATCTGAATTCCGGTCTCCC
DNA 2: TGGTGGCTACGACGGGATT
B4: CGACUAC (DNA:RNA)
RNA: B3 RNA with A25C, A26G, G27A, C29U, C30A
DNA 1: CAATCTGAATTCCGGTCTCCC
DNA 2: TGGTGGCTACGACGGGATT
B5: CUCCUUG (DNA:RNA)
RNA: B3 RNA with A25C, A26U, G27C, C29U, C30U, C31G
DNA 1: CAATCTGAATTCCGGTCTCCC
DNA 2: TGGTGGCTACGACGGGATT
B6: GAUCCCG (DNA:RNA)
RNA: B3 RNA with A25G, G27U, C31G
DNA 1: CAATCTGAATTCCGGTCTCCC
DNA 2: TGGTGGCTACGACGGGATT
B7: GGUCUUG (DNA:RNA)
RNA: B1 RNA with U25G, U28C, A29U, G30U
DNA 1: CAATCTGAATTCCGGTCTCCC
DNA 2: TGGTGGCTACGACGGGATT
B8: GGAAAGC (DNA:RNA)
RNA: B1 RNA with U25G, U27A, U28A, G31C
DNA 1: CAATCTGAATTCCGGTCTCCC
DNA 2: TGGTGGCTACGACGGGATT
B9: UUUAGGC (DNA:RNA)
RNA: B1 RNA with G26U, U28A, A29G, G31C
DNA 1: CAATCTGAATTCCGGTCTCCC
DNA 2: TGGTGGCTACGACGGGATT
B10: CCUGGUC (DNA:RNA)
RNA: B3 RNA with A25C, A26C, G27U, C28G, C29G, C30U
DNA 1: CAATCTGAATTCCGGTCTCCC
DNA 2: TGGTGGCTACGACGGGATT
B11: UCAACGA (DNA:RNA)
RNA: B1 RNA with G26C, U27A, U28A, A29C, G31A
DNA 1: CAATCTGAATTCCGGTCTCCC
DNA 2: TGGTGGCTACGACGGGATT
B12: CGGAAUU (DNA:RNA)
RNA: B1 RNA with U25C, U27G, U28A, G30U, G31U
DNA 1: CAATCTGAATTCCGGTCTCCC
DNA 2: TGGTGGCTACGACGGGATT
B13: GGAAAGA (DNA:RNA)
RNA: B1 RNA with U25G, U27A, U28A, G31A
DNA 1: CAATCTGAATTCCGGTCTCCC
DNA 2: TGGTGGCTACGACGGGATT
B14: UUGCUUG (DNA:RNA)
RNA: B3 RNA with A25U, A26U, C29U, C30U, C31G
DNA 1: CAATCTGAATTCCGGTCTCCC
DNA 2: TGGTGGCTACGACGGGATT
B15: UGUAACG (DNA:RNA)
RNA: B1 RNA with U28A, G30C
DNA 1: CAATCTGAATTCCGGTCTCCC
DNA 2: TGGTGGCTACGACGGGATT
B16: UGCACGG (DNA:RNA)
RNA: B1 RNA with U27C, U28A, A29C
DNA 1: CAATCTGAATTCCGGTCTCCC
DNA 2: TGGTGGCTACGACGGGATT
B17: GCGACCG (DNA:RNA)
RNA: B3 RNA with A25G, A26C, C28A, C31G
DNA 1: CAATCTGAATTCCGGTCTCCC
DNA 2: TGGTGGCTACGACGGGATT
B18: ACUGCGG (DNA:RNA)
RNA: B1 RNA with U25A, G26C, U28G, A29C
DNA 1: CAATCTGAATTCCGGTCTCCC
DNA 2: TGGTGGCTACGACGGGATT
B19: CACCACG (DNA:RNA)
RNA: B3 RNA with A25C, G27C, C29A, C31G
DNA 1: CAATCTGAATTCCGGTCTCCC
DNA 2: TGGTGGCTACGACGGGATT
B20: GUAUCCC (DNA:RNA)
RNA: B3 RNA with A25G, A26U, G27A, C28U
DNA 1: CAATCTGAATTCCGGTCTCCC
DNA 2: TGGTGGCTACGACGGGATT
B21: CGCGGAC (DNA:RNA)
RNA: B3 RNA with A25C, A26G, G27C, C28G, C29G, C30A
DNA 1: CAATCTGAATTCCGGTCTCCC
DNA 2: TGGTGGCTACGACGGGATT
B22: AUACAUG (DNA:RNA)
RNA: B3 RNA with A26U, G27A, C29A, C30U, C31G
DNA 1: CAATCTGAATTCCGGTCTCCC
DNA 2: TGGTGGCTACGACGGGATT
B23: GUAGAAA (DNA:RNA)
RNA: B1 RNA with U25G, G26U, U27A, U28G, G30A, G31A
DNA 1: CAATCTGAATTCCGGTCTCCC
DNA 2: TGGTGGCTACGACGGGATT
B24: UGCAUCU (DNA:RNA)
RNA: B1 RNA with U27C, U28A, A29U, G30C, G31U
DNA 1: CAATCTGAATTCCGGTCTCCC
DNA 2: TGGTGGCTACGACGGGATT
B25: GGGGCAC (DNA:RNA)
RNA: B3 RNA with A25G, A26G, C28G, C30A
DNA 1: CAATCTGAATTCCGGTCTCCC
DNA 2: TGGTGGCTACGACGGGATT
B26: CGGCACG (DNA:RNA)
RNA: B3 RNA with A25C, A26G, C29A, C31G
DNA 1: CAATCTGAATTCCGGTCTCCC
DNA 2: TGGTGGCTACGACGGGATT
B27: AUCGGAC (DNA:RNA)
RNA: B3 RNA with A26U, G27C, C28G, C29G, C30A
DNA 1: CAATCTGAATTCCGGTCTCCC
DNA 2: TGGTGGCTACGACGGGATT
B28: GACUUAU (DNA:RNA)
RNA: B3 RNA with A25G, G27C, C28U, C29U, C30A, C31U
DNA 1: CAATCTGAATTCCGGTCTCCC
DNA 2: TGGTGGCTACGACGGGATT
B29: CGCUAAA (DNA:RNA)
RNA: B1 RNA with U25C, U27C, G30A, G31A
DNA 1: CAATCTGAATTCCGGTCTCCC
DNA 2: TGGTGGCTACGACGGGATT
B30: GUGGAAA (DNA:RNA)
RNA: B3 RNA with A25G, A26U, C28G, C29A, C30A, C31A
DNA 1: CAATCTGAATTCCGGTCTCCC
DNA 2: TGGTGGCTACGACGGGATT
B31: CCGUUUA (DNA:RNA)
RNA: B3 RNA with A25C, A26C, C28U, C29U, C30U, C31A
DNA 1: CAATCTGAATTCCGGTCTCCC
DNA 2: TGGTGGCTACGACGGGATT

Molecular target: T1, RBFOX1 RRM
Assay: EMSA; HiTS-Eq, 1 nM pool, 10 min; buffer printed only for the single-RNA assays: 10 mM Tris pH 7.5, 150 mM NaCl, 3.4 mM EDTA, 0.001% NP-40, 30 C
Conditions: tags: His6 N-terminal (pET28a); label: 5' 32P
Procedure, shortened: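 Purified RbFox RRM, wild type or mutant, was incubated for 10 min in 50 µL with 1 nM of a 5′-radiolabelled RNA pool carrying 7 randomized nucleotides, whose flanks were annealed to DNA oligonucleotides, over a series of increasing protein concentrations. Unbound RNA was resolved on 8% native PAGE, cut out, reverse-transcribed, barcoded by PCR and sequenced on an Illumina HiSeq 2500. Relative association constants were derived from changes in read counts for each RNA species versus the control reaction and normalised to the cognate motif.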

Row | Binder | binding signal
1 | B1 | 0.0114 KA relative to UGCAUGU
2 | B2 | 0.0414 KA relative to UGCAUGU
3 | B3 | 0.00587 KA relative to UGCAUGU
4 | B4 | 0.00579 KA relative to UGCAUGU
5 | B5 | 0.0116 KA relative to UGCAUGU
6 | B6 | 0.0114 KA relative to UGCAUGU
7 | B7 | 0.0242 KA relative to UGCAUGU
8 | B8 | 0.0179 KA relative to UGCAUGU
9 | B9 | 0.0106 KA relative to UGCAUGU
10 | B10 | 0.0104 KA relative to UGCAUGU
11 | B11 | 0.00534 KA relative to UGCAUGU
12 | B12 | 0.0271 KA relative to UGCAUGU
13 | B13 | 0.0132 KA relative to UGCAUGU
14 | B14 | 0.0749 KA relative to UGCAUGU
15 | B15 | 0.014 KA relative to UGCAUGU
16 | B16 | 0.077 KA relative to UGCAUGU

Row | Binder | binding signal
17 | B17 | 0.0158 KA relative to UGCAUGU
18 | B18 | 0.0112 KA relative to UGCAUGU
19 | B19 | 0.00143 KA relative to UGCAUGU
20 | B20 | 0.00481 KA relative to UGCAUGU
21 | B21 | 0.01 KA relative to UGCAUGU
22 | B22 | 0.00318 KA relative to UGCAUGU
23 | B23 | 0.00469 KA relative to UGCAUGU
24 | B24 | 0.0208 KA relative to UGCAUGU
25 | B25 | 0.0252 KA relative to UGCAUGU
26 | B26 | 0.0377 KA relative to UGCAUGU
27 | B27 | 0.00433 KA relative to UGCAUGU
28 | B28 | 0.00918 KA relative to UGCAUGU
29 | B29 | 0.00338 KA relative to UGCAUGU
30 | B30 | 0.0139 KA relative to UGCAUGU
31 | B31 | 0.00336 KA relative to UGCAUGU

— article PMC9911399, “Two distinct binding modes provide the RNA-binding protein RbFox with extraordinary sequence specificity”
